Source: PubChem BioAssay AID1963977 (Molecular Pharmacology Branch, DTP, NCI, 2024)
For part of its entries the source gives two or more results. This list holds those alone. An entry can have further records. Values that stand side by side repeat one measurement (runs, samples, wells, individuals or studies). One block for each compound: values may come before it.

Test system: 624824-186-R-J3-PDC multicell spheroids, viability
Test: Anticancer human tumor 624824-186-R-J3-PDC patient-derived colon adenocarcinoma cell line growth inhibition [PI3K]
Details: for viability, T/C: stronger effect = lower value
Description: Combinatorial screen of targeted agents with the PI3K inhibitors inavolisib, alpelisib, duvelisib, and copanlisib in multi-cell type tumor spheroids
A high-throughput screen of multi-cell type tumor spheroids was designed to identify active combinations of targeted small molecules and PI3K pathway inhibitors. Complex spheroids include a stromal component modeled by human endothelial cells (HUVEC) and fibroblasts modeled by human mesenchymal stem cells (MSCs). The concentration ranges selected for each drug and investigational agent were based upon clinically achievable concentrations if the clinical Cmax of the agent was known.
Compounds. The drugs and investigational agents: inavolisib (NSC800729), alpelisib (NSC765974), duvelisib (NSC772469), copanlisib (NSC816437), ipatasertib (NSC767898), afuresertib (NSC778305), talazoparib (NSC767125), sapanisertib (NSC764658), selumetinib (NSC741078), tovorafenib (DAY101, NSC766906), vemurafenib (NSC761431), ravoxertinib (NSC781343), sotorasib (NSC818433), MRTX1133 (NSC 836407), abemaciclib (NSC 768073), palbociclib (NSC758247), venetoclax (NSC 766270), SY5609 (NSC837396), enzalutamide (NSC755605), and darolutamide (NSC825331), were obtained from the National Cancer Institute (NCI) Developmental Therapeutics Program Chemical Repository. The FDA-approved anticancer drug set is available from the NCI Developmental Therapeutics Program. […] The stock solutions were prepared in dimethyl sulfoxide (DMSO, Sigma-Aldrich, St. Louis, MO, cat. D2650) at 800-fold the tested concentration and stored at -70 degrees C prior to their use. All drugs and investigational agents were tested over a range starting from a high concentration at or near the clinical Cmax and decreasing in half-log increments. If the clinical Cmax for an agent had not been determined, the highest concentration tested was 10 microM.
Cell Culture. All cells were maintained in an incubator at 37 degrees C and 5% CO2 with 95% humidity. The PDC lines were cultured according to standard operating procedures established by the NCI PDMR (https://pdmr.cancer.gov/sops/default.htm). All PDCs were thawed and cultured in Matrigel-coated flasks prepared with a working solution of 1X Ham's F-12 nutrient mix, without supplementation (Invitrogen, Waltham, MA, cat. 11765054), 100 U/mL penicillin-streptomycin (Invitrogen, cat. 15140122), and 2.5% Matrigel (Corning Inc., Corning, NY, cat. 354248) for the first three passages. The 354836-022-R-J1-PDC, 475296-252-R-J1-PDC, and 997726-040-R-J2-PDC lines were cultured in 6A media, which includes advanced DMEM/F-12 (Thermo Fisher Scientific, cat. 12634028), 10 mM HEPES (Thermo Fisher Scientific, cat. 15630080), 1X GlutaMAX supplement (Thermo Fisher Scientific, cat. 35050061), 0.1 mg/mL primocin (InvivoGen, San Diego, CA, cat. ant-pm-2), 10% defined fetal bovine serum, heat inactivated (HyClone Laboratories Inc., Logan, UT, cat. SH30070.03HI), 50% L-WRN conditioned media (ATCC, cat. CRL-3276), 1.25 mM N-Acetyl-L-cysteine (Sigma-Aldrich, cat. A9165), 10 mM nicotinamide (Sigma-Aldrich, cat. N0636), 1X B-27 supplement (Thermo Fisher Scientific, cat. 17504044), 1X N-2 supplement (Thermo Fisher Scientific, cat. 17502048), and 10 microM Y-27632 dihydrochloride (Tocris Bioscience, Bristol, United Kingdom, cat. 1254). The 624824-186-R-J2-PDC line was cultured in 6C/Colon 1B media, which includes all 6A media components plus 50 ng/mL human EGF recombinant protein (Thermo Fisher Scientific, cat. PHG0311). […]
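Also: spheroids exposed to agents for seven days before luminescence read.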
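For viability, T/C in this document: luminescent signal used as a stand-in for spheroid viability; percent viability relative to DMSO vehicle control wells taken as 100%.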

Structure (SMILES): Cn1ncc(Cl)c1-c1cc(C(=O)NC(CN)Cc2cccc(F)c2)sc1Cl (stereo not given)
viability, T/C (compound alone 10 µM): 39.7, 72.4, 46.3, 50%

Structure (SMILES): Cn1ncnc1[C@H]1c2n[nH]c(=O)c3cc(F)cc(c23)N[C@@H]1c1ccc(F)cc1
viability, T/C (compound alone 0.00316 µM): 90, 96.9, 119, 91.8%

IC50 (compound alone): 9.3 µM, 8.3 µM, 8.09 µM, > 10 µM
Structure (SMILES): CC1(C)CCC(CN2CCN(c3ccc(C(=O)NS(=O)(=O)c4ccc(NCC5CCOCC5)c([N+](=O)[O-])c4)c(Oc4cnc5[nH]ccc5c4)c3)CC2)=C(c2ccc(Cl)cc2)C1
viability, T/C (compound alone 10 µM): 46.3, 39.6, 38.7, 93.1%

Structure (SMILES): CC(Nc1ncnc2nc[nH]c12)c1cc2cccc(Cl)c2c(=O)n1-c1ccccc1 (stereo not given)
viability, T/C (compound alone 0.1 µM): 98, 97.5, 103, 117, 105, 98.9, 89, 110%
